Experimental data from PubChem BioAssay AID1745853 (National Center for Advancing Translational Sciences (NCATS), 2022).
This is one part of the list. Further columns of the screen follow, without active or inactive calls.

Legend:
Assay in all cases: Primary Screen for Target Class Profiling of Small Molecule Inhibitors of Methyltransferases
[1] = target: Glycine N-methyltransferase (Homo sapiens) (UniProt Q14749); details: purified enzyme, MTase-Glo SAH luminescence; measured here: GNMT inhibition; at 40 µM; stronger effect = lower value
In short: (§1)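 Each enzyme was reacted with SAM and its substrate, with compounds tested once at 40 uM; SAH formed was read by MTase-Glo luminescence.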

[2] = target: Guanidinoacetate N-methyltransferase (Homo sapiens) (UniProt Q14353); details: purified enzyme, MTase-Glo SAH luminescence; measured here: GAMT inhibition; at 40 µM; stronger effect = lower value
In short: as §1

[3] = target: Histamine N-methyltransferase (Homo sapiens) (UniProt P50135); details: purified enzyme, MTase-Glo SAH luminescence; measured here: HNMT inhibition; at 40 µM; stronger effect = lower value
In short: as §1

[4] = target: Nicotinamide N-methyltransferase (Homo sapiens) (UniProt P40261); details: purified enzyme, MTase-Glo SAH luminescence; measured here: NNMT inhibition; at 40 µM; stronger effect = lower value
In short: as §1

[5] = target: Phenylethanolamine N-methyltransferase (Homo sapiens) (UniProt P11086); details: purified enzyme, MTase-Glo SAH luminescence; measured here: PNMT inhibition; at 40 µM; stronger effect = lower value
In short: as §1
% is set by controls: 0 for no effect and ±100 for the full control effect.

Compound	activity change, negative = inhibition [1] [%]	activity change, negative = inhibition [2] [%]	activity change, negative = inhibition [3] [%]	activity change, negative = inhibition [4] [%]	activity change, negative = inhibition [5] [%]
Cc1ccc(C)c(Cn2nc3n(C(C)C)c(=O)c4ccc(C(=O)NC5CCCCC5)cc4n3c2=O)c1	6.07	0	9.09	6.78	6.84
Cn1c(=O)n(C)c2cc(S(=O)(=O)Nc3cccc(Br)c3)ccc21	-4.27	1.9	-3.43	3.84	-4.91
CCc1ccccc1NC(=O)CSc1nnc2n(Cc3ccccc3)c(=O)c3ccccc3n12	-3.39	-3	7.16	-11.5	-4.12
O=c1cc(-c2ccc(O)cc2)oc2cc(O)cc(O)c12	-30.1	-5.59	-17.5	-17.5	-10.3
CC1(C(=O)NCc2ccc(F)cc2)Cn2cnc(C(=O)NCc3ccc(F)cc3)c2C(=O)N1C1CC1 (stereo not given)	2.95	1.42	11.9	4.22	9.24
CC(C)CN[C@H]1CO[C@H]2[C@@H]1OC[C@@H]2Nc1nccc(-c2cccs2)n1	-23	-7.52	-6.11	-11.6	-2.72
CC(C)CCn1c(=O)c2ccccc2n2c(SCC(=O)Nc3cc(F)ccc3F)nnc12	2.45	2.07	9.27	-10.2	4.61
CCCn1c(=O)c2ccccc2n2c(SCC(=O)Nc3ccc(OC)cc3)nnc12	-0.625	4.86	8.14	3.12	3.23
C=C[C@@H]1[C@H](O[C@@H]2O[C@H](CO)[C@@H](O)[C@H](O)[C@H]2O)OC=C(C(=O)O)[C@H]1CCOC(=O)/C=C/c1ccc(O)c(O)c1	1.16	-6.26	1.45	-15.5	1.72
O=C(NCc1ccc(Cl)cc1)c1c[nH]c2ncccc12	-17.8	-11.4	-11	-25.7	-38.4
CC(C)CC(=O)N1C(C(=O)NCC2CCCO2)COC12CCC(C)CC2 (stereo not given)	1.65	-2.91	1.68	0.606	-0.47
COc1ccccc1CN1C(=O)c2nc3ccccc3n2CC1(C)C(=O)NC1CCC(C)CC1 (stereo not given)	-4.38	0	5.99	-20.4	-7.3
CC(=O)NCc1nnc2n1C(C(=O)NC1CCCCCC1)CC2 (stereo not given)	-4.26	-12.7	-4.31	-15.6	-9.23
COc1ccc(-c2cnc3n[nH]c(-c4ccccc4C)c3n2)cn1	-22	-12.6	-28	-15.4	-7.38
COc1ccc2cc(C3CN(CCC(=O)NC(C)(C)C)CCO3)ccc2c1 (stereo not given)	-2.27	-2.53	2	-2.18	-0.574
CC(C)Cn1c(=O)c2ccccc2n2c(CCC(=O)NCCCOC(C)C)nnc12	-6.63	2.07	7.72	-1.5	-1.83
Cn1cncc1-c1nnc([C@H]2CCN(CC3CCCCC3)C2)o1	-3.22	-2.93	-6.97	-10.9	-9.72
Cn1ccnc1C(=O)N1CCC(Cc2ccc(CCC(=O)N3CCCC3)cc2)CC1	-6	-8.34	-2.42	-13.4	-9.7
C=CCn1c(=O)c2ccc(C(=O)NC(C)C)cc2n2c(=O)n(CC(=O)N(C)c3ccc(F)cc3)nc12	7.87	1.61	4.79	3.65	8.62

Compound	activity change, negative = inhibition [1] [%]	activity change, negative = inhibition [2] [%]	activity change, negative = inhibition [3] [%]	activity change, negative = inhibition [4] [%]	activity change, negative = inhibition [5] [%]
Cc1ccc(Cn2c(=O)c3ccccc3n3c(=O)n(CC(=O)NCc4ccccc4)nc23)cc1	4.67	0	11.4	7.15	3.96
O=C(C1CCCO1)N1CCN(c2nc(-c3cccnc3)nc3c2CNC3)CC1 (stereo not given)	-5.06	-4.09	-6.57	-5.2	-20.7
Cc1cccc(S(=O)(=O)N2CCC[C@@H]2CCN2CCC(C)CC2)c1	-2.46	0.997	2.55	-11.8	-4.99
CCCCNC(=O)c1ccc2c(=O)nc3c(-c4ccccc4F)n[nH]n3c2c1	-14.4	4.79	1.5	1.73	-3.13
COc1cccc(NS(=O)(=O)c2ccc3c(c2)n(C)c(=O)n3C)c1	0.292	4.68	-0.243	1.24	-2.19
Cc1ccc(Cn2c(=O)c3ccc(C(=O)NC(C)C)cc3n3c(=O)n(CC(=O)NC(C)(C)C)nc23)cc1	4.52	0.473	5.77	0.839	4.39
CC(=O)N1CCN(NC(=O)c2ccc(F)cc2)CC1	6.58	7.46	13.2	-7.26	3.9
COC(=O)CC1CC(c2ccc(O)cc2)=NO1 (stereo not given)	-5.51	-18.5	-8.53	-27.4	-13
c1ccc(-c2nnn3c2nc(N2CCc4ccccc4C2)c2ccccc23)cc1	-19.8	-25.2	-25.9	-19.1	-28.8
Cc1ccc(Cn2c(=O)c3ccccc3n3c(CCC(=O)N4CCC(Cc5ccccc5)CC4)nnc23)cc1	-2.72	5.87	3.92	-3.16	-1.38
Cc1cccc(NC(=O)c2cc3n(n2)CC(C)(C(=O)NC2CCCCC2)N(C)C3=O)c1C (stereo not given)	0.158	0.919	2.68	3.31	0.115
CN1CCN(c2ncnc3c2CN(C2CCCCC2)C(=O)CN3C)CC1	-1.6	-1.16	-1.68	-4.45	3.57
O=C(Cc1ccsc1)N1CCC(n2cc(-c3nc(-c4ccccc4)no3)nn2)C1 (stereo not given)	-5.6	0.395	0.49	-13.1	-2.35
O=C(NCc1ccccc1Cl)c1ccc2nnc(-c3ccoc3)n2c1	-31.8	-12.7	-16.8	-27	-14.7
CCOCCCN1C(=O)c2cc3occc3n2CC1(C)C(=O)NC1CCCCC1 (stereo not given)	1.5	5.85	2.4	8.8	1.25
Cc1ccc(CCNC(=O)c2cc3c(=O)[nH]c(C)cn3n2)cc1	-6.29	-7.27	-3.13	-14.8	-9.48
C=CC(C)(CC/C=C(\C)CC/C=C(\C)CC(O)/C=C(\C)C(=O)O)O[C@@H]1O[C@H](CO)[C@@H](O)[C@H](O)[C@H]1O[C@@H]1O[C@H](CO)[C@@H](O)[C@H](O)[C@H]1O (stereo not given in full)	0	-1.66	0.728	-13.4	4.53
O=C(CCc1nnc2n(CCc3ccccc3)c(=O)c3ccccc3n12)Nc1cccc(Cl)c1	1.96	1.78	8.68	2.27	0.044
CCOC(=O)c1cccc(NC(=O)N2CC[C@@H](CC(=O)NCc3ccccc3OC)[C@@H](CC)C2)c1	-1.28	-3.69	-13.4	-22	5.22
